Test results: PubChem BioAssay AID485344 (National Center for Advancing Translational Sciences (NCATS), 2010)
About 6,900 (2%) of roughly 340,000 compounds were called active. Cut-off read from the data, not from the text of the source: active = inhibition above about 30%; inactive = below that, where a call was filed. The list shows a part of the results, in another mix than the full data. Where no call is shown, the source filed none.

Molecular target: D(2) dopamine receptor (Homo sapiens) (UniProt P14416)
Sequence of UniProt P14416 (P14416 whole entry, looked up): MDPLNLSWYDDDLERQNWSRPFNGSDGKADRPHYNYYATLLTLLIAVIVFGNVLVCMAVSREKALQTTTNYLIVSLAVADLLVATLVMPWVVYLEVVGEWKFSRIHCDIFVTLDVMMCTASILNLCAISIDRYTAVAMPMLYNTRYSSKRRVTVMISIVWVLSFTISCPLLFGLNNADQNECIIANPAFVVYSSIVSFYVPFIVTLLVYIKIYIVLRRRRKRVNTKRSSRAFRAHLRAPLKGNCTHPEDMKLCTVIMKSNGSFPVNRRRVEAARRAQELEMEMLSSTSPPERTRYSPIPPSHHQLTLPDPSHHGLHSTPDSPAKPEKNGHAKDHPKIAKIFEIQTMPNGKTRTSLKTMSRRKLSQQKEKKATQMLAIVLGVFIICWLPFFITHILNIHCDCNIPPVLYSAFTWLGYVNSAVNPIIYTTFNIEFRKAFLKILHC
Experiment: HTS Assay for Allosteric Antagonists of the Human D2 Dopamine Receptor: Primary Screen for Antagonists; note: 0% is about no effect
Conditions: HEK293 TREx D2 cells, calcium flux, dopamine EC80; at 10 µM; stronger effect = higher value
Summary of the method: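 Compounds are added to dye-loaded, induced HEK293 T-REx cells coupled to calcium release via D2; after a 3 min kinetic read an EC80 dopamine stimulus is given and fluorescence is recorded for 3 more min.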

| SMILES | inhibition |
| --- | --- |
| CCOCCCNC(=O)c1c(NC(=O)Cc2coc3ccc(C)cc23)sc2c1CCC2 | 5.04% |
| O=S(=O)(c1cccc(F)c1)N1CCC(Oc2ccc(-n3cnnn3)cc2)CC1 | -18.2% |
| CCc1ccc(S(=O)(=O)c2c(C(=O)c3ccccc3)cnc3ccc(CC)cc23)cc1 | 23% |
| COc1ccccc1CN1CCC(CNC(=O)c2cnn(-c3ccc(Cl)cc3)c2C2CCN(C(=O)OC(C)(C)C)CC2)CC1 | -7.75% |
| CC(C)c1ccc(OCC(O)CN2CCN(c3ccc(F)cc3)CC2)cc1 (centres undefined) | -13.1% |
| CCCCNS(=O)(=O)c1ccc2nc(-c3cccnc3)cc(C(=O)NCCOC)c2c1 | 11.9% |
| Cc1ccccc1NC(=O)c1ccc(Cl)c(S(=O)(=O)N2CCCCCC2)c1 | 3.11% |
| O=C(NCCCc1nc2ccccc2n1Cc1ccc(Cl)cc1Cl)c1ccco1 | 7.77% |
| COc1cc(Cl)c(C)cc1NC(=O)Cn1ncc2c3ccccc3n(Cc3ccccc3)c2c1=O | -4.7% |
| CCc1ccc(CNC(=O)c2c(C)oc3ncn(CC(C)C)c(=O)c23)cc1 | -9.31% |
| COc1ccc(CNC(=O)CCCn2c(=O)c3cccn3c3cccnc32)cc1 | 13.8% |
| CCN(CC)CCCNC(=O)CN1N=C(c2ccc(OC)cc2)CCC1=O | 24.4% |
| CCOCCCN(Cc1ccco1)C(=O)c1cc2c(=O)[nH]c3ccc(C)cc3c2s1 | 3.89% |
| COCCNC(=O)Cn1c(=O)n(CCCCCC(=O)Nc2ccccc2)c(=O)c2sccc21 | 8.44% |
| O=S(=O)(c1ccccc1)c1nnn2c1nc(NCc1ccccc1)c1sccc12 | -10.6% |
| COc1cccc(NC(=O)c2cnc(SCC(=O)N3CCOCC3)n(C)c2=O)c1 | 20.6% |
| Cc1ccc(Cl)cc1N1CCN(C(=O)CN2C(=O)CSc3c2c(C)nn3-c2ccccc2)CC1 | 1.75% |
| O=C(NCc1cccs1)c1ccc(Cn2c(SCc3ccc(F)cc3)nc3cccnc32)cc1 | -11.3% |
| COc1ccc(-c2cn3c(n2)sc2cc(C(=O)NCCc4ccc(OC)cc4OC)ccc23)cc1 | 25.2% |
| CCc1ccc2c(c1)-c1ccccc1S(=O)(=O)N2CC(=O)N1CCCCC1 | 2.34% |
| CCCCN(C)CCCNC(=O)Cn1ncc2c3ccccc3n(Cc3cc(C)ccc3C)c2c1=O | -3.53% |
| CCN(CC)CCCNC(=O)c1nn(-c2ccc(C)cc2)c(=O)c2c1c1ccccc1n2C | 18.1% |
| CCN(Cc1ccccc1)C(=O)c1sc2nc3n(c(=O)c2c1C)CCCC3 | -6.8% |
| CCOc1ccc(CNS(=O)(=O)c2ccc(-c3coc(C)n3)cc2)cc1OC | 8.58% |

| SMILES | inhibition |
| --- | --- |
| O=C(CN1CCN(c2ccccc2O)CC1)Nc1ccc2c(c1)CCC2 | active: 66.8% |
| COc1ccccc1CNC(=O)c1cc2c(s1)-c1ccccc1OC2 | 17.4% |
| CCC(=O)N1c2ccc(S(=O)(=O)CCC(=O)Nc3ccc(Br)c(C)c3)cc2CC1C (centres undefined) | 2.27% |
| CCCn1c(CCCNC(=O)c2ccccc2OC)nc2ccccc21 | 9.49% |
| CCOC(=O)C1CCCN(C(=O)c2nn(-c3ccc(C)cc3)c(=O)c3c2c2ccccc2n3C)C1 (centres undefined) | 0.375% |
| O=C(/C=C\c1ccccc1)NC1CC(=O)N(c2ccccc2)C1 (centres undefined) | -9.93% |
| Cc1cc(C)c2c(n1)sc1c(=O)n(-c3cc(Cl)ccc3C)nnc12 | 11.7% |
| COC(=O)c1ccccc1NC(=O)Cn1c(=O)n(-c2cccc(C(F)(F)F)c2)c(=O)c2c(C)c(C)sc21 | -17.2% |
| CCN(CC)S(=O)(=O)c1ccc2oc(C(=O)NCc3ccccc3OC)c(C)c2c1 | -5.46% |
| Cc1ccc(S(=O)(=O)NCC2CCC(C(=O)NCCc3ccc(Cl)cc3)CC2)cc1 (centres undefined) | -13.9% |
| Cc1ccc(C)c(N2CCN(C(=O)c3cc(S(=O)(=O)N4CCCCCC4)cn3C)CC2)c1 | 1.55% |
| COCCCNC(=O)c1ccc(Cn2c(SCc3cccc(C)c3)nc3cccnc32)cc1 | -1% |
| COc1cc(/C=C/c2nc(C#N)c(NC3CCCCC3)o2)cc(OC)c1OC | -0.0581% |
| COc1ccc(-n2ccnc(NCCc3ccc(S(N)(=O)=O)cc3)c2=O)cc1 | 7.81% |
| O=C(/C=C/c1cn(CC(O)CN2CCCCCC2)c2ccccc12)c1ccccc1 (centres undefined) | -24.5% |
| Cc1ccc(CNc2nc3c(S(=O)(=O)c4ccccc4)nnn3c3ccsc23)cc1 | -0.553% |
| COc1ccc(N2C(=O)C(CC(=O)Nc3ccccc3)N(Cc3ccc4c(c3)OCO4)C2=O)cc1 (centres undefined) | active: 43% |
| COc1ccccc1N1CCN(CCCCN2C(=O)C3CCCCN3C2=O)CC1 (centres undefined) | active: 94.3% |
| COc1ccc(-c2nn(C)c3sc(C(=O)N4CCN(c5cccc(C)c5C)CC4)cc23)cc1OC | -4.76% |
| O=C(CCCn1c(=O)c2cccn2c2cccnc21)NCCc1ccc(Cl)cc1 | -2.06% |
| COc1ccc(CN2C(=O)C(NC(=O)c3ccc(C)cc3)(C(F)(F)F)N=C2c2ccccc2)cc1 (centres undefined) | -2.1% |
| COc1ccc(NC(=S)N2CCN(C(=O)c3ccco3)CC2)cc1 | active: 32.3% |
| CCOC(=O)c1ccccc1NC(=O)CN(c1ccccc1OC)S(=O)(=O)c1ccc(C)cc1 | 9.55% |
| COc1ccccc1NC(=O)CSc1nc2c(oc3ccccc32)c(=O)n1-c1ccc(C)cc1 | -11.6% |

| SMILES | inhibition |
| --- | --- |
| CCOC(=O)N1CCc2c(sc3c2c(=O)n(-c2ccc(Cl)cc2)c(=O)n3CC(=O)c2ccc(F)cc2)C1 | -9.83% |
| COc1ccc(NS(=O)(=O)c2nnc(NC(=O)c3ccccc3F)s2)cc1 | 11.2% |
| COc1cccc(OC)c1OCCOCCN1CCN(C)CC1 | active: 68.4% |
| CSc1ccc(CNC(=O)CCn2ccc3cc(S(=O)(=O)N4CCCC4)ccc32)cc1 | -10.7% |
| COc1ccc(NC(=O)CC2SC(N3CCOCC3)=NC2=O)cc1OC (centres undefined) | active: 72.8% |
| CCOc1ccc(NC(=O)Cn2c(C)ccc(C#N)c2=O)cc1 | -23.6% |
| CCc1nnc2c3ccccc3nc(N3CCN(c4ccc(C)cc4C)CC3)n12 | -6.67% |
| COc1ccccc1CNC(=O)c1ccc(C)c(-n2cnc3cccnc32)c1 | 5.81% |
| O=C(NC1CCN(S(=O)(=O)c2ccccc2C(F)(F)F)CC1)c1ccco1 | active: 30.3% |
| CCCN1C(=O)C(NC(=O)c2ccccc2OC)(C(F)(F)F)C(C(=O)OC)=C1C (centres undefined) | 3.33% |
| Cc1ccc(C)c(NC(=O)CSc2cn(CC(=O)N3CCCC3)c3ccccc23)c1 | 23.9% |
| CCOc1ccc(NC(=O)Cc2csc(COc3cccc(C)c3)n2)cc1 | -4.57% |
| CCCCN1CCc2c1nc1ccc(Br)cc1c2N | active: 67.9% |
| CCOc1ccccc1C1C(C(=O)Nc2ccccc2OC)=C(C)Nc2nc3ccccc3n21 (centres undefined) | -2.26% |
| Cc1ccc2nc(NC(=O)c3cc(=O)c4cc(C)c(C)cc4o3)sc2c1 | 9.9% |
| Cc1cc(C)cc(NC(=O)NCCn2nnc3cc(S(=O)(=O)N(C)C)ccc32)c1 | 0.321% |
| CCOc1ccc(C(=O)OCc2cc(=O)n3nc(C4CCCCC4)sc3n2)cc1 | 7.28% |
| CSc1ncc(Cl)c(C(=O)N(Cc2ccccc2Cl)C2CCS(=O)(=O)C2)n1 (centres undefined) | -2.93% |
| CCC(=O)Nc1nnc(S(=O)(=O)N(C)Cc2ccccc2)s1 | 6.49% |
| COc1cccc(NC(=O)Cn2c(=O)n(-c3ccc(CC(=O)NCC4CCCO4)cc3)c(=O)c3ccccc32)c1 (centres undefined) | 19.2% |
| CCOc1ccccc1NC(=O)c1cccc2c1C(=O)N(C1CCCCC1)C2 | 5.77% |
| CCCCn1c(-c2ccc(S(=O)(=O)N3CCOCC3)cc2)csc1=Nc1ccccc1 | 2.43% |
| COc1ccc(C(=O)Nc2cc(C(F)(F)F)ccc2N2CCN(c3ccccc3)CC2)cc1OC | 2.4% |
| Cc1cccc(Cn2c(CN3CCC(C(=O)NCCc4ccccc4)CC3)cc3ccccc32)c1 | 21.1% |

| SMILES | inhibition |
| --- | --- |
| Cc1c(C(=O)Nc2ccccc2Br)oc2ccc(S(=O)(=O)N3CCCCC3)cc12 | 12% |
| CCN(c1cccc(C)c1)S(=O)(=O)c1nnc(NC(=O)c2cccs2)s1 | 8.72% |
| COc1ccc(-c2c(C)nn3c4c(cnc23)C(=O)CC(c2ccc(C)cc2)C4)cc1 (centres undefined) | 11.3% |
| Cc1sc2ncn(CC(=O)Nc3cccc(C(F)(F)F)c3)c(=O)c2c1S(=O)(=O)N1CCC(C)CC1 | 9.68% |
| O=C(Nc1cc(-c2ccccc2)cs1)c1ccco1 | active: 31.3% |
| CCOC(=O)C1=C(CN2CCN(c3ccccc3)CC2)NC(=O)NC1c1ccc(C)cc1 (centres undefined) | 5.52% |
| COc1ccc(C2c3c(-c4ccccc4O)n[nH]c3C(=O)N2Cc2ccco2)cc1 (centres undefined) | -4.93% |
| O=C(Nc1ccccc1C(=O)OCc1cc(=O)n2nc(C3CC3)sc2n1)c1cccc(Cl)c1 | 7.27% |
| Cc1ccc(Cl)cc1NC(=O)Cn1c(=O)c(CNc2ccccc2)cc2cc3c(cc21)OCCO3 | 3.19% |
| COCCn1c(SCC(=O)Nc2ccc(F)c(Cl)c2)nc2c(oc3ccccc32)c1=O | -0.173% |
| O=C(CN1CCc2ccccc2C1)Nc1cc(S(=O)(=O)N2CCOCC2)ccc1N1CCCC1 | active: 83.2% |
| COc1ccc(C(=O)NCCc2sc(-c3cccc(F)c3)nc2C)cc1 | -13.3% |
| CC(=O)NC1=NN(C(C)=O)C(C)(CS(=O)(=O)c2ccc3ccccc3c2)S1 (centres undefined) | active: 39.1% |
| Cc1ccccc1NS(=O)(=O)c1ccc2[nH]cc(C(=O)N3CCCC3)c(=O)c2c1 | -9.35% |
| Cc1nc2ccn(Cc3cccnc3)c(=O)c2cc1C(=O)Nc1ccc(OC(F)(F)F)cc1 | -7.24% |
| CCS(=O)(=O)c1ncc(N(Cc2ccco2)Cc2sccc2C)c(C(=O)Nc2cc(C)ccc2C)n1 | 24.5% |
| Cn1c(C(=O)NCc2ccc(F)cc2)cc2c(=O)n(C)c3ccccc3c21 | -8.47% |
| CCCn1c(=O)c2sccc2n2c(CCCC(=O)N3CCN(c4ccccc4)CC3)nnc12 | 4.17% |
| COc1ccc(CCNC(=O)Cn2nnc(-c3ccc(C(F)(F)F)cc3)n2)cc1OC | 8.42% |
| CCCC(=O)N1CC(=O)Nc2ccc(Cl)cc2C1c1ccc(F)cc1 (centres undefined) | 6.2% |
| CC(=O)c1cccc(NC(=O)CCS(=O)(=O)c2cc(Br)cc3c2N(C(=O)C2CC2)CC3)c1 | -2.06% |
| Cc1csc2nc(COC(=O)COc3ccccc3F)cc(=O)n12 | -1.32% |
